Assay results published in the RNAGym collection of RNA variant scans (doi:10.7554/elife.90254).
The source gives no read counts; variants with many changes may rest on few reads.

B1: LINE1-full (parent)
chain: UACGUAGGUGGUUUUCCCCUGAUAGUGCUAAGGGGGCCUGGAAGUUUGGACUGGGCAGAGCUCAACACAGCGUGGCAAAGUGGCUGUGGCUAGACUGCCUCUCUGGAUUCCUCGUCACUCAGCAGGGCAUCUCUGAGAGAAAUGCC

Variants of: B1
Assay: self-cleavage, relative activity (ratio to wild type); higher = more cleavage; in vitro, sequencing; the parent is a self-cleaving ribozyme

| Variant | self-cleavage |
| --- | --- |
| CACGUAGGUGGUUUUCCCCUGAUAGUGCUAAGGGGGCCUGGAAGUUUGGACUGGGCAGAGCUCAACACAGCGUGGCAAAGUGGCUGUGGCUAGACUGCCUCUCUGGAUUCCUCGUCACUCAGUAGGGCAUCCCUGAGAGAAAUGCC [U1C C123U U132C] | 0.72 |
| UACGUAGGUGGUUUUCCCCUGAUAGUGCUAAGGGGGCCUGGAAGUUUGGACUGGGCAGAGCUCAACACAGCGUGGCAAAGUGGCUGUGGCUAGACAGCCUCUCUGGAUUCCUCGUCACUCAGCAGGGCAACUCUGGGAGAAAUGCC [U96A U130A A136G] | 0.04 |
| UACGUAGGUGGUUUUCCCCUGGUAGUGCUAAGGGGGCCUGGAAGUUUGGACUGGGCAGGGCUCAACACAGCGUGGCAAAGUGGCUGUGGCCAGACUGCCUCUCUGGAUUCCUCGUCACUCAGCAGGGCAUCUCUGAGAGAAAUGCC [A22G A59G U91C] | 0 |
| UACGUAGGUGGUUUUCCCCUGAUAGUGCUAAGGUGGCCUGGAAGUUUGGACUGGGCAGAGCUCAACACAGCGUGGCAAAGUGGCUGUGGCUAGUCUGCCUCUCUGGAUUCCUCGUCACUCGGCAAGGCAUCUCUGAGAGAAAUGCC [G34U A94U A121G G125A] | 0.29 |
| UACGUAGGUGGUUUUCCCCUGAUAGUGCUAAGGGGGCCUGGUAGUUUGGACUGGGCAGAACUCAACACAGCGUGGCAGAGUGGCUGUGGCUAGACUGCCUCUCUGGAUUCCUCGUCACUCAGCAGGGCAUCUCUGAGAGAAGUGCC [A42U G60A A78G A142G] | 0.04 |
| UACGUAGGUGGUUUUCCCCUGAUAGUGCUAAGGGGGCCUGGGAGUUUGGACUGGGCAGAGCUCAACACAGCGUGGCAAAGUGGCUGUGGCUAGACUGCCUUUCUGGAUUCCUCGUCACUCAGCAGGGCAUCCCUGAGAGAAAUGCC [A42G C101U U132C] | 1.27 |
| UACGUAGGUGGUUUUCCACUGAUAGAGCUAAGGGGGCCUGGAAGUUUGGACUGGGCAGAGCGCAACACAGCAUGGCAAAGUGGCUGUGGCUAGACUGCCUCUCUGGAUUCCUAGUCACUCAGCAGGGCAUCUCUGAGAGAAAUGCC [C18A U26A U62G G72A C113A] | 0.07 |
| UACGUAGGUGGUUUUCCCCUGACAGAGCUAAGGGGGCCUGGAAGUUUGGACUGGGCAGAGCUCAACACAGCGUGGCGAAGUGGCUGUGGCUAGACUGCCUCUUUGGAUUCCUCGUCACUCAGCAGGGCAUCUCUGAGAGAAAUGCC [U23C U26A A77G C103U] | 2.28 |
| UACGUAGGUGGUUUUCCCCUGAUAGUGCUAAGGGGGCCAGGAAGUUCGGACUGGGCAGAGCCCAACACAGCGUGGCAAAGUGGCUGUGGCUAGACUGGCUCUCUGGAUUCCUCGUCACUCAGCAGGGUAUCUCUGAGAGAAAUACC [U39A U47C U62C C98G C128U G144A] | 0.03 |
| UACGUAGGUGGUUUUCCCCUGUUAGUGCUAAGGGGGCCUGGGAGUUUGGACUGGGCAGAGCCCAACACAGCGUGGCAAAGUGGCUGUGGCUAGACUACCUCUCUGGUUUCCUCGUCACUCAGCAGGGCAUCUCUGAGAGGAAUGCC [A22U A42G U62C G97A A107U A140G] | 0.01 |
| UACGUAGGUGGUUUUCCCCUGAUAGUGUUAAGGGGGCCAGGAAGUUUGGACUGGGCAGAGCUCAACACAGCGUGGCAAAGUGGCUGUGGCUAGACUGCCUCUCUGGAUUCCUCGUCACUCAGCAGGGCAUCUCUGAGAGGAAAGCC [C28U U39A A140G U143A] | 0.71 |
| UACGUAGGUGGUUUUCCCCUGAUAGCGCUAAGGGGGCCUGGAAGUUUGGACUGGGCAGAGCUCAACACAGCGUGGCAAAGUGGCUGUGGCUAGACUGCCACUCUGGAUCCCUCGUCACUCAGCAGGGCAUCUCUGAGAGGAAUGCC [U26C U100A U109C A140G] | 0.61 |
| UACGUAGGUGGUUUUCCCCUGAUAGUGCUAAGGGGGCCUGGAAGUUUGGACUGGGCAGAGCUCAACACAGCGUGGCAAAGUGGCCGUGGCUAGACUGCCUCUCUGGAUUCCUCGUCACCCAGCAGGGCGUCUCUGAGAGAAAUGCC [U85C U119C A129G] | 0 |
| UACGUAGGUGGUUUUCCCCUGAUAGUGCUAAGGGGGCCUGGAAGUUUGGACUGGGCAGAGCUCAACACAGCGUGGCAAAGUGGCUGCGGCUAGACUGCCUCUCUGGAUUCCUCGUCACUCAGCAGGGCAUCUCUGGGAGAGAUGCC [U87C A136G A141G] | 0.39 |
| UACGUAGGUGGUUUUCCCCUGAUAGUGCUAAGGGGGCCUGGAAGUUUGGACUAGGCAGAGCUCAACACAGCGUGGCAAGGUGGCUGUGGCUAGACUGCCUCUCUGGAUUCCUCGUCACUCAGCAGGGCACCUCUGAGAGAAAUGCC [G53A A79G U130C] | 2.21 |
| UACGUAGGUGGUUUUCCCCUGAUAGUGCUAAGGGGGCCUGGAAGUUUGGACUGGGCAGAGCUCAACACAGCGUGGCAAAGCGGCUGUGGCUAGACUGCCUCUCUGAAAUCCUCGUCACUCAGCAGGGCAUCUCUGAGAGAAAUGCC [U81C G106A U108A] | 1.78 |
| UACGUAGGUGGCUUUCCCCUGAUAGUGCUAAGGGGGCCUGGAAGUUUGGACUGGGCAGAGCUCAACACCGCGAGGCAAAGUGGCUGUGGCUAGACUGCCUCUCUGGAUUCCUCGUCACUCAGCAGGGCAUCUCUGAGAGAAAUGCC [U12C A69C U73A] | 0.03 |
| UACGUAGGUGGUUUUCCCCUGAUAGUACUAAGGGGGCCUGGAAGUUUGGACUGGGCAGAGCUCAACACAGCGUGGCAAAGUGGCCGUGGCUAGACUGCCUCUCCGGGUUCCUCGUUACUCAGCAGGGCAUCUCUGAGAGAAAUGCC [G27A U85C U104C A107G C116U] | 0.07 |
| UACGUAGGUGGUUUUCCCCUGAUAGUGCUAAGGGGGCCUGGAAGUUCGGACUGGGCAGAGCUCAACACAGCGUGGCAAAGUGGCCGUGGCUAGACUGCCUCUCUGGAUUCCUCGUCACUCAGCUGGGCAUCUCUGAGAGAAAUGCC [U47C U85C A124U] | 0.81 |
| UACGUAGGUGGCUUUCCCCUGAUAGUGCUAAGGGGGCCUGGAAGUUUGGACUGGGCAGAGCUCGACACAGCGUGGCAAAGUGGCUGUGGCUAGACUGCCUCUCUGGGUUCCUCGUCACUCAGCAGGGCAUCUCUGAGAGAAAUGCC [U12C A64G A107G] | 0.32 |

| Variant | self-cleavage |
| --- | --- |
| UACGUAGGUGGUCUUCCCCUGAUAGUGCUAAGGGGGCCUGGAAGUUUGGACUGGGCAGAGCUCAACACAGCGUGGCAAAGUGGCUGUGGCUAGACUGCCUCUCUGGAUUCCUCGUCACACAGCAGGGCGUCUCUGAGAGAAAUGCC [U13C U119A A129G] | 0 |
| UACGUAGGUGGUUCUCCCCUGAUAGUGCUAAGGGGGCCUGGAAGUUUGGACUGGGCAGAGCUCAACACAGCGUGGCAAAGUGGCUGUGGCAAGACUGCCUCUCUGGAUUCCUCGUCACGCAGCAGGGCAUCUCUGAGAGAAAUGCC [U14C U91A U119G] | 0.62 |
| UACGUAGGUGGUUUUCCCCUGAUAGUGCUAAGGGGUCCUGGAAGUUUGGACUGGGCAGAGCUCAACACAGCGUGGCAAAGUGGCUGUGGCUAGACUGCCUCUCUGGAUUCCUCGUCAUACAGCAGGGCAUCUCUGAGAGAAAUGCC [G36U C118U U119A] | 0.71 |
| UACGUAGGUGGUUUUCCCCUGAAAGUGCUAGGGGGGCCUGGGAGUUUGGACUGGGCAGAGCUCAACACAGCGUGGCAAAGAGGCUGUGGCUAGACUGCCUCUCUGGAUUCCUCGUCACUCAGCAGGGCAUCUCUGAGAGAAAUGCC [U23A A31G A42G U81A] | 2.24 |
| UACGUAGGUGGUUCUCCCCUGAUAGUGCUAAGGGGGCCUGGAAGUUUGGACUGGGCAGAGCUCAACACGGCGUGGCAAAGUGGCUGUGGCUAGACUGCCUCUCUGGAUUCCUCGUCACUCAGCAGGGCAUCUCUGCGAGAAAUGCC [U14C A69G A136C] | 1.11 |
| UACGUAGGAGGUUUUCCCCUGAUAGUGCUAAGGGGGCCUGGAAGUUUGGACUGGGCAGAGCUCAUCACGGCGUGGCAAUGUGGCUGUGGCUAGACUGCCUCUCUGAACUCCUCGUCACUCAGCAGGGCAUCUCUGUGAGAAAUGCC [U9A A65U A69G A79U G106A U108C A136U] | 0.06 |
| UACGUAGGUGGUUUUCCCCUGAUAGUGCUAAGGGGGCCUGGAAGUUUGGACUGGGCAGAGCUCAACACAGCGUGGCAAAGAGGCUGUGGCUAGACUGCCUCUUUGGAUUCCUCGUCACACAGCAGGGCAUCUCUGAGAGAAAUGCC [U81A C103U U119A] | 0.78 |
| UACGUAGGUGGUUUUCCCCUGAUAGUGCUAAGGGGGCCUGGAAGGUUGGACUGGGCAGUGCUCAACACAGCGUGGCUAAGUGGCUGUGGCUAGACUGCCUCUCUGGAUUCCUCGUCACUCAGCAGGGCAUCUCUGAGAGAAAUGCC [U45G A59U A77U] | 0.82 |
| UACGUAGGUGGUUUACCCCUGAUAGUGCUAAGGGGGCCUGGAAGUUUGGACUGGGCAGAGCUCAACACAGCGUGGCAAUGUGGCUGUGGCUAGACUGCCUCUCUGGAUUCCUCGCCACUCAGCAGGGCGUCUCUGAGAGAAAUGCC [U15A A79U U115C A129G] | 2.76 |
| UACGUAGGUGGUUUUCCCCUGAUAGUGCUAAGGGGGCCUGGAAGUUUGGACUGGGCAGAGCUCAGCACAGCGUGGCAAAGUGGCUGUGGCUAGACUGCCACUCUGGAUUCCUCGUCACUCAGCAGGGCGUCUCUGAGAGAGAUGCC [A65G U100A A129G A141G] | 0 |
| UACGUAGGCGGUUUUCCCCUGAUAGUGCUAAGGGGGCCAGGAAGUUUGGACUGGGCAGAGCACAACACAGCGUGGCAAAGUGGCUGUGGCUAGACUGCCUCUCUGGAUUCCUCGUCACUCAGCAGGGCAUCUCUGAGAGAAAUGCC [U9C U39A U62A] | 0.08 |
| UACGUAGGUGGUUUACCCCUGAUAGUGCUAAGGGGGCCUGGAAGUUUGGACUGGGCAGAGCUCAACACAGCGUGGCAAAGUGGCUGCGGCUAGACUGCCUCUCUGGAUUCCUCGUCACUCAGCUGGGCGUCUCCGAGAGAAAUGCC [U15A U87C A124U A129G U134C] | 0 |
| UACGUAGGUGGUUUUCCCCAGAUAGUGCUAAGGGGGCCUGGAAGUUUGGACUGGGCAGAGCUCAACACAGCGUGGCAAAGUGGCUGUGGCUAGACUGCCUCUCUGGAUUCCUCGUCUCUCAGCAGGGCAUCUCUGAGAGAGAUGCC [U20A A117U A141G] | 0.71 |
| CACGUAGGUGGUUCUCCCCUGAUAGUGCUAAGGGGGCCUGGAAGUUUGGACUGGGCAGAGCCCAACACAGCGUGGCAAAGUGGCUGUGGCUAGACUGCCUCUCUGGAUUCCUCGUCACUCAACAGGGCGUCUCUGAGAGAAAUGCC [U1C U14C U62C G122A A129G] | 0.12 |
| UACGUAGCUGGGUUUCCCCUGAUAGUGCUAAGGGGGCCUGGAAGUUUGGACUGGGCAGGGCUCAACACAGCGUGGCAAAGUGGCUGUGGCUAGACUGCCUCACUGGAUUCCUCGUCACUCAGCAGGGCAUCUCUGAGAGAAAUGCC [G8C U12G A59G U102A] | 0.23 |
| UACGUAGGUGUUUUUCCCCUGAUAGUGCUAAGGGGGCCUGGAAGUUCGGACUGGGCAGAGCUCAACACAGCGUGGCAAAAUGGCUGUGGCUAGACUGCCUCUCUGGAUACCUCGCCACUCAGCAGGGCAUCUCUGAGAGAAAUGGC [G11U U47C G80A U109A U115C C145G] | 2.23 |
| UACGUAGGUGGAUUUCCCCUGAAAGUGCUAAGGGGGCCUGGAAGUUUGGACUGGGCAGAGCUCAACACAGCGUGGCAAAGUGGCUGUGGCCAGACAGCCUCUCUGGAUUCCUCGUCACUCAGCAGGGCAUCUCUGAGAGAAAUGCC [U12A U23A U91C U96A] | 0.05 |
| UACGUAGGUGGUUUUCCCCUGAUAGUGCUAAGGGGGCCUGGAAGUUUGGACUGGGCAGAGCUCAGCACAGCGUGGCAAAGUGGCUGUGGCUAGACUGCCUCUCUGUAUUCCUCGUCACUCAGCAGGGCUUCUCUGAGAGAAAUGCU [A65G G106U A129U C146U] | 0.07 |
| UACGUUGGUGGUUUUCCCCUGAUAGUGCUAAGGGGGCCUGGACGUAUGGACUGGGCAGAGCUCAACACAGCGUGGCAAAGUGGCUGUGGCUAGACUGCCUCUCUGGAUUCCUCGUCACUCAGCAGGGCAUCUCUGAGAGAAAUGCC [A6U A43C U46A] | 0.74 |
